In publication PMC4468608, “A distinct p53 target gene set predicts for response to the selective p53–HDM2 inhibitor NVP-CGM097” (eLife, 2015):
The source gives many values for each of these; only a part stands here.

Tested on: cell lines from the Cancer Cell Line Encyclopedia (CCLE)
Test: High-throughput cell viability assay, CCLE cell line panel (n = 356)
Format: cell-based, human
Experimental: Cell lines were partitioned into sensitive and insensitive groups based on compound potency (IC50). […] All other cell lines were obtained from ATCC (American Type Culture Collection), DSMZ (Deutsche Sammlung von Mikroorganismen und Zellkulturen), and HSRRB (Health Science Research Resources Bank) and cultured in RPMI or Dulbecco's modified Eagle's medium plus 10% FBS (Invitrogen, Carlsbad, CA) at 37°C, 5% CO2.

For `COc1cc2c(cc1OC(C)C)[C@H](c1ccc(Cl)cc1)N(c1ccc(N(C)C[C@H]3CC[C@H](N4CCNC(=O)C4)CC3)cc1)C(=O)C2` [NVP-CFC218], the sensitivity call (HCC70, TP53 MUT) was “insensitive (Sensitivity call for each compound was applied according to a cut-off of 4 µM for IC50 and -50% for Amax)”, the Amax (HCC1500, TP53 WT) was -63.62% and the sensitivity call (HCC1500, TP53 WT) was “insensitive (Sensitivity call for each compound was applied according to a cut-off of 4 µM for IC50 and -50% for Amax)”. For the same compound, the Amax (HCC4006, TP53 MUT) was -3.10%, the sensitivity call (HCC4006, TP53 MUT) was “insensitive (Sensitivity call for each compound was applied according to a cut-off of 4 µM for IC50 and -50% for Amax)” and the Amax (HCC-56, TP53 MUT) was 8.24%. For the same compound, the sensitivity call (HCC-56, TP53 MUT) was “insensitive (Sensitivity call for each compound was applied according to a cut-off of 4 µM for IC50 and -50% for Amax)”, the Amax (HCC-78, TP53 MUT) was 0.79% and the sensitivity call (HCC-78, TP53 MUT) was “insensitive (Sensitivity call for each compound was applied according to a cut-off of 4 µM for IC50 and -50% for Amax)”. For the same compound, the Amax (HCT 116, TP53 WT) was -66.04%, the sensitivity call (HCT 116, TP53 WT) was “sensitive (Sensitivity call for each compound was applied according to a cut-off of 4 µM for IC50 and -50% for Amax)” and the Amax (HD-MY-Z, TP53 MUT) was -21.14%. The sensitivity call (HD-MY-Z, TP53 MUT) was “insensitive (Sensitivity call for each compound was applied according to a cut-off of 4 µM for IC50 and -50% for Amax)”, the Amax (HEC-50B, TP53 MUT) was -23.10% and the sensitivity call (HEC-50B, TP53 MUT) was “insensitive (Sensitivity call for each compound was applied according to a cut-off of 4 µM for IC50 and -50% for Amax)”. The Amax (HEC-59, TP53 MUT) was -1.34%, the sensitivity call (HEC-59, TP53 MUT) was “insensitive (Sensitivity call for each compound was applied according to a cut-off of 4 µM for IC50 and -50% for Amax)” and the Amax (HEC-151, TP53 MUT) was -52.18%. For the same compound, the sensitivity call (HEC-151, TP53 MUT) was “insensitive (Sensitivity call for each compound was applied according to a cut-off of 4 µM for IC50 and -50% for Amax)”, the Amax (HEL 92.1.7, TP53 MUT) was 5.00% and the sensitivity call (HEL 92.1.7, TP53 MUT) was “insensitive (Sensitivity call for each compound was applied according to a cut-off of 4 µM for IC50 and -50% for Amax)”. For the same compound, the Amax (HGC-27, TP53 MUT) was -52.41%, the sensitivity call (HGC-27, TP53 MUT) was “insensitive (Sensitivity call for each compound was applied according to a cut-off of 4 µM for IC50 and -50% for Amax)” and the Amax (HH, TP53 MUT) was 14.86%. The sensitivity call (HH, TP53 MUT) was “insensitive (Sensitivity call for each compound was applied according to a cut-off of 4 µM for IC50 and -50% for Amax)”, the Amax (HPB-ALL, TP53 MUT) was -2.06% and the sensitivity call (HPB-ALL, TP53 MUT) was “insensitive (Sensitivity call for each compound was applied according to a cut-off of 4 µM for IC50 and -50% for Amax)”. For the same compound, the Amax (HSC-3, TP53 MUT) was -2.32%, the sensitivity call (HSC-3, TP53 MUT) was “insensitive (Sensitivity call for each compound was applied according to a cut-off of 4 µM for IC50 and -50% for Amax)” and the Amax (HSC-4, TP53 MUT) was -2.11%. The sensitivity call (HSC-4, TP53 MUT) was “insensitive (Sensitivity call for each compound was applied according to a cut-off of 4 µM for IC50 and -50% for Amax)”, the Amax (HT-29, TP53 MUT) was -14.05% and the sensitivity call (HT-29, TP53 MUT) was “insensitive (Sensitivity call for each compound was applied according to a cut-off of 4 µM for IC50 and -50% for Amax)”. For the same compound, the Amax (HT-144, TP53 WT) was -69.73%, the sensitivity call (HT-144, TP53 WT) was “sensitive (Sensitivity call for each compound was applied according to a cut-off of 4 µM for IC50 and -50% for Amax)” and the Amax (Hey-A8, TP53 WT) was -59.27%. The sensitivity call (Hey-A8, TP53 WT) was “sensitive (Sensitivity call for each compound was applied according to a cut-off of 4 µM for IC50 and -50% for Amax)”, the Amax (Hs 294T, TP53 MUT) was -63.14% and the sensitivity call (Hs 294T, TP53 MUT) was “sensitive (Sensitivity call for each compound was applied according to a cut-off of 4 µM for IC50 and -50% for Amax)”. For the same compound, the Amax (Hs 578T, TP53 MUT) was 12.21%, the sensitivity call (Hs 578T, TP53 MUT) was “insensitive (Sensitivity call for each compound was applied according to a cut-off of 4 µM for IC50 and -50% for Amax)” and the Amax (Hs 683, TP53 MUT) was 3.20%. The sensitivity call (Hs 683, TP53 MUT) was “insensitive (Sensitivity call for each compound was applied according to a cut-off of 4 µM for IC50 and -50% for Amax)”, the Amax (Hs 695T, TP53 WT) was -62.89% and the sensitivity call (Hs 695T, TP53 WT) was “sensitive (Sensitivity call for each compound was applied according to a cut-off of 4 µM for IC50 and -50% for Amax)”. The Amax (Hs 746T, TP53 MUT) was 0.34%, the sensitivity call (Hs 746T, TP53 MUT) was “insensitive (Sensitivity call for each compound was applied according to a cut-off of 4 µM for IC50 and -50% for Amax)” and the Amax (Hs 766T, TP53 MUT) was -25.13%. For the same compound, the sensitivity call (Hs 766T, TP53 MUT) was “insensitive (Sensitivity call for each compound was applied according to a cut-off of 4 µM for IC50 and -50% for Amax)”, the Amax (Hs 936.T, TP53 WT) was -53.45% and the sensitivity call (Hs 936.T, TP53 WT) was “insensitive (Sensitivity call for each compound was applied according to a cut-off of 4 µM for IC50 and -50% for Amax)”. For the same compound, the Amax (HuCCT1, TP53 MUT) was -1.97%, the sensitivity call (HuCCT1, TP53 MUT) was “insensitive (Sensitivity call for each compound was applied according to a cut-off of 4 µM for IC50 and -50% for Amax)” and the Amax (HuH-7, TP53 MUT) was -15.66%. For the same compound, the sensitivity call (HuH-7, TP53 MUT) was “insensitive (Sensitivity call for each compound was applied according to a cut-off of 4 µM for IC50 and -50% for Amax)”, the Amax (HuT 78, TP53 MUT) was 3.50% and the sensitivity call (HuT 78, TP53 MUT) was “insensitive (Sensitivity call for each compound was applied according to a cut-off of 4 µM for IC50 and -50% for Amax)”. For the same compound, the Amax (IA-LM, TP53 MUT) was 1.08%, the sensitivity call (IA-LM, TP53 MUT) was “insensitive (Sensitivity call for each compound was applied according to a cut-off of 4 µM for IC50 and -50% for Amax)” and the Amax (IGR-39, TP53 MUT) was -19.40%. For the same compound, the sensitivity call (IGR-39, TP53 MUT) was “insensitive (Sensitivity call for each compound was applied according to a cut-off of 4 µM for IC50 and -50% for Amax)”, the Amax (IPC-298, TP53 MUT) was -6.63% and the sensitivity call (IPC-298, TP53 MUT) was “insensitive (Sensitivity call for each compound was applied according to a cut-off of 4 µM for IC50 and -50% for Amax)”. The Amax (IST-MES2, TP53 MUT) was -3.22%, the sensitivity call (IST-MES2, TP53 MUT) was “insensitive (Sensitivity call for each compound was applied according to a cut-off of 4 µM for IC50 and -50% for Amax)” and the Amax (JHH-4, TP53 MUT) was -22.81%. The sensitivity call (JHH-4, TP53 MUT) was “insensitive (Sensitivity call for each compound was applied according to a cut-off of 4 µM for IC50 and -50% for Amax)”, the Amax (JVM-3, TP53 WT) was -65.00% and the sensitivity call (JVM-3, TP53 WT) was “sensitive (Sensitivity call for each compound was applied according to a cut-off of 4 µM for IC50 and -50% for Amax)”. For the same compound, the Amax (K029AX, TP53 WT) was -68.89%, the sensitivity call (K029AX, TP53 WT) was “sensitive (Sensitivity call for each compound was applied according to a cut-off of 4 µM for IC50 and -50% for Amax)” and the Amax (KARPAS-299, TP53 MUT) was -3.42%. The sensitivity call (KARPAS-299, TP53 MUT) was “insensitive (Sensitivity call for each compound was applied according to a cut-off of 4 µM for IC50 and -50% for Amax)”, the Amax (KATO III, TP53 MUT) was -5.58% and the sensitivity call (KATO III, TP53 MUT) was “insensitive (Sensitivity call for each compound was applied according to a cut-off of 4 µM for IC50 and -50% for Amax)”. For the same compound, the Amax (KCL-22, TP53 MUT) was -25.90%, the sensitivity call (KCL-22, TP53 MUT) was “insensitive (Sensitivity call for each compound was applied according to a cut-off of 4 µM for IC50 and -50% for Amax)” and the Amax (KMBC-2, TP53 MUT) was -69.03%. The sensitivity call (KMBC-2, TP53 MUT) was “sensitive (Sensitivity call for each compound was applied according to a cut-off of 4 µM for IC50 and -50% for Amax)”, the Amax (KMS-11, TP53 WT) was -2.60% and the sensitivity call (KMS-11, TP53 WT) was “insensitive (Sensitivity call for each compound was applied according to a cut-off of 4 µM for IC50 and -50% for Amax)”. The Amax (KMS-26, TP53 MUT) was 2.18%, the sensitivity call (KMS-26, TP53 MUT) was “insensitive (Sensitivity call for each compound was applied according to a cut-off of 4 µM for IC50 and -50% for Amax)” and the Amax (KNS-62, TP53 MUT) was -16.08%. For the same compound, the sensitivity call (KNS-62, TP53 MUT) was “insensitive (Sensitivity call for each compound was applied according to a cut-off of 4 µM for IC50 and -50% for Amax)”, the Amax (KO52, TP53 MUT) was -34.10% and the sensitivity call (KO52, TP53 MUT) was “insensitive (Sensitivity call for each compound was applied according to a cut-off of 4 µM for IC50 and -50% for Amax)”. The Amax (KP4, TP53 WT) was 0.41%, the sensitivity call (KP4, TP53 WT) was “insensitive (Sensitivity call for each compound was applied according to a cut-off of 4 µM for IC50 and -50% for Amax)” and the Amax (KP-2, TP53 MUT) was -23.35%. For the same compound, the sensitivity call (KP-2, TP53 MUT) was “insensitive (Sensitivity call for each compound was applied according to a cut-off of 4 µM for IC50 and -50% for Amax)”, the Amax (KP-3, TP53 MUT) was -3.05% and the sensitivity call (KP-3, TP53 MUT) was “insensitive (Sensitivity call for each compound was applied according to a cut-off of 4 µM for IC50 and -50% for Amax)”. The Amax (KS-1, TP53 WT) was -64.80%, the sensitivity call (KS-1, TP53 WT) was “sensitive (Sensitivity call for each compound was applied according to a cut-off of 4 µM for IC50 and -50% for Amax)” and the Amax (KU-19-19, TP53 WT) was -62.34%. For the same compound, the sensitivity call (KU-19-19, TP53 WT) was “insensitive (Sensitivity call for each compound was applied according to a cut-off of 4 µM for IC50 and -50% for Amax)”, the Amax (KYM-1, TP53 WT) was -80.17% and the sensitivity call (KYM-1, TP53 WT) was “sensitive (Sensitivity call for each compound was applied according to a cut-off of 4 µM for IC50 and -50% for Amax)”.
